# Data: PubChem BioAssay (NCATS)
# Inconclusive means that the source gave no clear call. Such entries were picked first, then a sample of the others. For some assays here: No potency is given beside an inconclusive call; the fits are too rough. Active and inactive are the calls of the source. Unless noted, calls come from the whole dose curve; as a rule, active = well fitted curve in the direction sought with a large enough effect; inconclusive = small, poorly fitted or top-dose-only effect, or another doubt; inactive = no such curve, though single readings can be large; an effect the other way counts as inactive or inconclusive.
# Assays:
# [1] = molecular target: Phospholipid hydroperoxide glutathione peroxidase GPX4 (Homo sapiens) (UniProt P36969); experiment: Primary qHTS Assay for Inhibitors of Recombinant Selenoprotein Glutathione Peroxidase 4 (GPX4) (AID 1845192); details: activity change, negative = inhibition: at 50 µM (top of the series) unless noted; note: % is set by controls: 0 for no effect and ±100 for the full control effect; nearly all actives have a fitted effect of over 65% in size
# Chain of UniProt P36969 (P36969 whole entry, looked up): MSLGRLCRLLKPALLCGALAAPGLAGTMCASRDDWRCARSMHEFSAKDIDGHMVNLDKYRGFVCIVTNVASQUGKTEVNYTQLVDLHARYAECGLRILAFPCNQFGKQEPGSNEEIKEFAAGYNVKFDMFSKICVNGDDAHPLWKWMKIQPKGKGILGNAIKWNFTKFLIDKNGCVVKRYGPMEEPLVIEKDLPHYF
# Outline: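 Steps: GPX4 plus compound, 30 min RT; add GR/GSH/NADPH master mix; start with cumene hydroperoxide; read 340/450 nm fluorescence at 0 and 15 min. Finals were 200 nM GPX4, 1 mM GSH, 0.5 mM CHP, 0.5 mM NADPH, 100 nM GR.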
# PA-1 = experiment: Primary qHTS to identify gynecologic anti-cancer compounds using libraries of approved drugs and bioactive compounds (AID 1345084); details: Gynecologic cancer cell panel viability, ATPlite luminescence, 48 h; series mostly up to 57.5 µM; note: nearly all actives have a fitted effect of over 55% in size; note: potency is the fitted concentration of half-maximal effect; for activity change, negative = cytotoxicity: % is set by controls: 0 for no effect and ±100 for the full control effect
# Outline: (§1)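 Five-concentration response, 48 h; readout is ATP-driven luciferase luminescence.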
# [2] = Primary fluorescence-based thiol-reactive (MSTI) qHTS assay for identification of artifact compounds. (AID 1845221); note: potency is the fitted concentration of half-maximal effect;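 note: thiol-reactive compounds lower the probe fluorescence signal; nearly all actives have a fitted effect of over 65% in size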
# Outline: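 In PBS pH 7.4 with 2% DMSO, each compound met 4 uM MSTI for one hour at ambient temperature, shielded from light, before fluorescence detection.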
# [3] = test system: Zika virus NS2B-NS3 protease (unlinked complex); experiment: Primary screen GU Rhodamine qHTS for Zika virus inhibitors: Unlinked NS2B-NS3 protease assay (AID 1347159); details: Recombinant ZIKV NS2B-NS3 protease, Rhodamine110 substrate fluorescence; activity change, negative = inhibition: at 107 µM (top of the series); note: potency is the fitted concentration of half-maximal effect; nearly all actives have a fitted effect of over 60% in size
# Outline: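 Unlinked NS2B/NS3, 25 nM; Rhod110 peptide, 1.5 microM; compounds, up to 114 microM. Reaction run 15 min at RT in 10 mM Tris-HCl pH 8.0, 0.01% Tween 20; kinetic fluorescence change fitted with a 4-parameter Hill model.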
# [4] = Primary qHTS for inhibitors of nuclear receptor binding SET domain protein 2 (NSD2) in an isogenic RCH-ACV NSD2 p.E1099K mutant (9B) (AID 1645876); details: activity change, negative = viability loss: at 44.9 µM (top of the series) unless noted; note: nearly all actives have a fitted effect of over 70% in size; note: potency is the fitted concentration of half-maximal effect
# SKOV3 = experiment: Primary qHTS to identify gynecologic anti-cancer compounds using libraries of approved drugs and bioactive compounds (AID 1345084); details: Gynecologic cancer cell panel viability, ATPlite luminescence, 48 h; series mostly up to 57.5 µM; note: nearly all actives have a fitted effect of over 55% in size; note: potency is the fitted concentration of half-maximal effect; for activity change, negative = cytotoxicity: % is set by controls: 0 for no effect and ±100 for the full control effect
# Outline: as §1
# Tov-21-G = experiment: as above; details: Gynecologic cancer cell panel viability, ATPlite luminescence, 48 h; series mostly up to 57.5 µM
# Outline: as §1
# [5] = qHTS of pediatric cancer cell lines to identify multiple opportunities for drug repurposing: Primary screen for BT-37 cells (AID 1347094);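 note: plate controls were DMSO for no effect and bortezomib for full effect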
# Outline: (§2)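 500-1,000 cells/well; 5 h pre-incubation 37 °C/5% CO2; compound pinned; 48 h; CellTiter-Glo, 15 min RT; luminescence. MIPE 11-pt from 0.78 nM, NPC 8-pt from 0.59 nM final. Bortezomib 2.3 µM final as positive control.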
# [6] = qHTS of pediatric cancer cell lines to identify multiple opportunities for drug repurposing: Primary screen for NB-EBc1 cells (AID 1347095);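 note: plate controls were DMSO neutral control for no effect and bortezomib for full effect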
# Outline: as §2
# [7] = qHTS of pediatric cancer cell lines to identify multiple opportunities for drug repurposing: Primary screen for U-2 OS cells (AID 1347096);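 note: plate controls were DMSO wells for no effect and bortezomib positive control wells for full effect; nearly all actives have a fitted effect of over 50% in size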
# Outline: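 Viability after 48 h compound treatment at 37C, 500-1,000 cells/well, read as ATP luminescence with CellTiter-Glo. Primary screens used 11-point (MIPE, 0.78 nM-46 µM) or 8-point (NPC, 0.59 nM-46 µM) final concentrations; follow-up screens used 11-point dilutions.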
# [8] = test system: Zika virus NS2B-NS3 protease; experiment: Primary screen GU AMC qHTS for Zika virus inhibitors (AID 1347154);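 note: 0% = no-inhibitor control and -100% = no-enzyme control; nearly all actives have a fitted effect of over 70% in size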
# Outline: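 Unlinked Zika NS2B hydrophilic domain–NS3 protease complex at 25 nM in 10 mM Tris-HCl pH 8.0, 0.01% Tween 20, with an AMC peptide substrate. Fluorescence change (340/450 nm) over 15 min at room temperature, normalized to controls, fitted to 4-parameter Hill.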
# [9] = A High-Content qHTS Against Drug Library for the Identification of Small Molecules that Inhibit DYT1 Early Onset Primary Dystonia-Associated Cell Pathology (AID 1645839; calls by dose curve)
# Outline: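 Cells were seeded and left for 24 h, then dosed with compound alongside tetracycline induction of mutant EGFP-TorsinA. They were incubated for 48 h, fixed in 4% paraformaldehyde, permeabilized and imaged for mislocalization (%pathology) and cell count.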
# [10] = Primary qHTS for inhibitors of nuclear receptor binding SET domain protein 2 (NSD2) in an RCH-ACV wild type WT cells (2C) (AID 1645877); details: activity change, negative = cell killing: at 44.9 µM (top of the series) unless noted; note: % is set by controls: 0 for no effect and ±100 for the full control effect; nearly all actives have a fitted effect of over 70% in size
# [11] = molecular target: Glutathione peroxidase 1 (Homo sapiens) (UniProt P07203); experiment: Primary qHTS Assay for Inhibitors of Recombinant Selenoprotein Glutathione Peroxidase 1 (GPX1) (AID 1845191); note: nearly all actives have a fitted effect of over 65% in size; note: potency is the fitted concentration of half-maximal effect
# Chain of UniProt P07203 (P07203 whole entry, looked up): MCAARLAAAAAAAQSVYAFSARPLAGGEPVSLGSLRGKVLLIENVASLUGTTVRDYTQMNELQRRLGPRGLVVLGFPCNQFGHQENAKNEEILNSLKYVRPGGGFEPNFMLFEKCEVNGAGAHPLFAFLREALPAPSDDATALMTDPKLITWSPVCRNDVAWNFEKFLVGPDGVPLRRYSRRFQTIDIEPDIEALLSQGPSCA
# Outline: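 GR-coupled readout: NADPH consumption tracked by fluorescence, ex 340/em 450 nm, at t=0 and after 15 min at RT. Final mix 10 nM GPX1, 1 mM GSH, 0.5 mM CHP, 0.5 mM NADPH, 100 nM GR, 0.01% BSA, following 30 min enzyme–compound preincubation.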
# [12] = test system: Zika virus NS2B-NS3 protease (linked construct); experiment: Primary screen NINDS Rhodamine qHTS for Zika virus inhibitors (AID 1347160); note: % is set by controls: 0 for no effect and ±100 for the full control effect; nearly all actives have a fitted effect of over 55% in size
# Outline: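 Single-chain NS2B-NS3 protease, 25 nM, pH 8.0; compounds preincubated 15 min. Activity: Rhodamine110 release from 1.5 microM substrate over 15 min, room temperature, data fitted to 4-parameter Hill.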
# [13] = test system: Nanoluciferase (engineered Oplophorus gracilirostris luciferase); experiment: Primary Nanoluciferase (NLuc) qHTS assay for identification of artifact compounds. (AID 1845222);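 note: NLuc secreted into diluted conditioned medium of S16 cells; 0% = DMSO and -100% = no enzyme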
# Outline: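 S16 cell supernatant NLuc, 1:55; cpds qHTS; 15 min RT dark; Nano-Glo substrate 1:100, 5 min; luminescence; Hill fit of % inhibition.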
# [14] = molecular target: Cytochrome P450 2D6 (Homo sapiens) (UniProt P10635); experiment: Cytochrome P450 family 2 subfamily D member 6 (CYP2D6) small molecule antagonists: luciferase biochemical (cell-free) qHTS assay (AID 1645840; active = well fitted curve in the direction sought with a large enough effect in the repeat runs; inconclusive = weak or mixed curves; inactive = no such curve, though single readings can be large; an effect the other way counts as inactive or inconclusive; note: potency is the fitted concentration of half-maximal effect; nearly all actives have a fitted effect of over 55% in size)
# Chain of UniProt P10635 (P10635 whole entry, looked up): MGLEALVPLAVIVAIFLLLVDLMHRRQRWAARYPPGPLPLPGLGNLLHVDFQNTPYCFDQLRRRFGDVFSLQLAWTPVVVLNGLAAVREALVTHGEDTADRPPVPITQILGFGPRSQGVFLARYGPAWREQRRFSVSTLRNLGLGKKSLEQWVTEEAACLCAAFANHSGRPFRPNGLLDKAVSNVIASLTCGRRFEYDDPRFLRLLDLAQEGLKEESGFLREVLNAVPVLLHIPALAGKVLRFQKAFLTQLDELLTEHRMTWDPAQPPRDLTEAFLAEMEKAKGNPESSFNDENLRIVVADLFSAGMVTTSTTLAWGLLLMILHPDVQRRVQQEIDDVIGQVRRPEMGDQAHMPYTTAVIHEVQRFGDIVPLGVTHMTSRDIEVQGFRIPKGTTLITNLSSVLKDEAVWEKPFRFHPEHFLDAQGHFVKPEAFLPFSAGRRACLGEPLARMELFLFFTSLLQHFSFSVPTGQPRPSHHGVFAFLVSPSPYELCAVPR
# Outline: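 P450-Glo CYP2D6 system: proluciferin substrate converted by enzyme to luciferin, read by luminescence proportional to activity. Enzyme-substrate mix with compound 10 min at room temperature, then NADPH regeneration 1 h before detection reagent.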
# [15] = molecular target: Cytochrome P450 2C9 (Homo sapiens) (UniProt P11712); experiment: Cytochrome P450 family 2 subfamily C member 9 (CYP2C9) small molecule antagonists: luciferase biochemical (cell-free) qHTS assay (AID 1645842; active = well fitted curve in the direction sought with a large enough effect in the repeat runs; inconclusive = weak or mixed curves; inactive = no such curve, though single readings can be large; an effect the other way counts as inactive or inconclusive)
# Chain of UniProt P11712 (P11712 whole entry, looked up): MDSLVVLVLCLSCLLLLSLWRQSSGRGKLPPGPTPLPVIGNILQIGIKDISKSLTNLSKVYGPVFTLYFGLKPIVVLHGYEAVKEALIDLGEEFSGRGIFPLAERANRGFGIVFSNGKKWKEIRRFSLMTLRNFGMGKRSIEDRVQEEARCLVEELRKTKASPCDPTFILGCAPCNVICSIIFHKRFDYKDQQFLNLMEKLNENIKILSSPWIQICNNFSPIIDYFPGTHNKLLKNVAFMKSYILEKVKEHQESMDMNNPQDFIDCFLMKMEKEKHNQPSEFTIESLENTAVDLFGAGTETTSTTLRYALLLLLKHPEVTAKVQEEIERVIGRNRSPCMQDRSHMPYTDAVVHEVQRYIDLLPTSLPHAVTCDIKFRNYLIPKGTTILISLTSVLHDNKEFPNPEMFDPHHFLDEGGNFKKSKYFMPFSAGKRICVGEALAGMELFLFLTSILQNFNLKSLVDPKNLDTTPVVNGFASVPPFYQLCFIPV
# Outline: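 P450-Glo CYP2C9 system: proluciferin substrate with enzyme in mix containing 0.4% BSA, 10 min at room temperature, then NADPH regeneration solution added and incubated 1 h at 37C. Detection reagent stopped reaction; luminescence read after 20 min as RLU.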
# Tags give direction and shape of the fitted curve.
smiles,measurement,setting,value
CC1(C)CC[C@]2(C(=O)O)CC[C@]3(C)C(=CCC4[C@@]5(C)CC[C@H](O[C@@H]6O[C@H](C(=O)O)[C@@H](O[C@@H]7OC[C@@H](O)[C@H](O)[C@H]7O)[C@H](O)[C@H]6O)C(C)(C)C5CC[C@]43C)C2C1O (stereo not given in full),Potency,[1],inactive
same,Potency,PA-1,"inconclusive [cytotoxic, single point]"
CC(=O)O[C@H]1[C@H](C)[C@@H](O)[C@H]2[C@@H]1C=C(C(=O)O)[C@H]1C[C@@H]3[C@H]([C@H]21)[C@H]1C(=O)O[C@@H]2CC[C@@]3(C)O[C@]1(O)[C@@H]2C,Potency,[2],"inconclusive [inhibitor, partial curve]"
same,Potency,PA-1,inactive
CC1(C)CC2C3=CCC4C5(C)CCC(OC6OC(C(=O)O)C(O)C(O)C6OC6OC(CO)C(O)C(O)C6OC6OC(CO)C(O)C(O)C6O)C(C)(CO)C5CCC4(C)C3(C)CCC2(C)C(OC2OCC(O)C(OC3OC(CO)C(O)C(O)C3O)C2O)C1O (stereo not given),"activity change, negative = thiol reactive",[2],inactive: 89.2% [at 11.5 µM]
same,"activity change, negative = cytotoxicity",PA-1,inactive: 5.88% [at 6.55 µM]
CC/C=C/CC1=C(CCCCC(CCC(=O)O)OC(C)=O)CCC1=O (stereo not given),Potency,[3],"inconclusive [inhibitor, partial curve]"
same,Potency,[4],"inconclusive [inhibitor, single point]"
same,Potency,SKOV3,"inconclusive [cytotoxic, single point]"
same,Potency,Tov-21-G,inactive
Cn1c(=O)c2c(ncn2CC(=O)O)n(C)c1=O,Potency,[5],inactive
same,Potency,[6],inactive
same,Potency,[7],inactive
same,Potency,[8],inactive
same,Potency,[9],inactive
same,Potency,[4],inactive
same,Potency,SKOV3,"inconclusive [rising, single point]"
same,Potency,Tov-21-G,inactive
O=C1C[C@@]2(C(=O)N1)C(=O)N(Cc1ccc(Br)cc1F)C(=O)c1cccn12,Potency,[3],"inconclusive [inhibitor, partial curve, poor fit]"
same,Potency,SKOV3,"inconclusive [rising, full curve, poor fit]"
same,Potency,Tov-21-G,inactive
Cc1nc2sc(C(=O)NCc3ccncc3)c(N)c2c(C)c1Cl,Potency,[10],inactive
same,Potency,[11],active: 12.8 µM
same,Potency,PA-1,inactive
COCC1OC(n2cnc3c(=O)[nH]cnc32)C(O)C1O (stereo not given),Potency,[12],inactive
same,Potency,[10],inactive
same,Potency,[13],inactive
same,Potency,SKOV3,"inconclusive [rising, partial curve]"
same,Potency,Tov-21-G,inactive
CC(C)c1nnc(-c2ccc(-c3ccccc3)nc2)n1-c1cccc2nonc12,Potency,[14],"inconclusive [inhibitor, partial curve]"
same,Potency,[15],active: 13.5 µM
same,Potency,[10],inactive
same,Potency,[11],inactive
same,Potency,SKOV3,inconclusive
same,Potency,Tov-21-G,"inconclusive [rising, single point]"
